In patent publication US20250019377A1 (JACOBIO PHARMACEUTICALS CO., LTD, priority 2021, published 2025):

Legend:
[1] = molecular target: K-Ras WT (Homo sapiens, UniProt P01116); experiment: SOS1 catalyzed nucleotide exchange assay (GDP form K-Ras), K-Ras WT; conditions: read-out: K-Ras WT GDP Biochemical Activity (IC50)
[2] = molecular target: K-Ras G12R (Homo sapiens, UniProt P01116, G12R); experiment: SOS1 catalyzed nucleotide exchange assay (GDP form K-Ras), K-Ras G12R; conditions: read-out: K-Ras G12R GDP Biochemical Activity (IC50)
[3] = molecular target: K-Ras G12V (Homo sapiens, UniProt P01116, G12V); experiment: SOS1 catalyzed nucleotide exchange assay (GDP form K-Ras), K-Ras G12V; conditions: read-out: K-Ras G12V GDP Biochemical Activity (IC50)
[4] = molecular target: K-Ras Q61H (Homo sapiens, UniProt P01116, Q61H); experiment: SOS1 catalyzed nucleotide exchange assay (GDP form K-Ras), K-Ras Q61H; conditions: read-out: K-Ras Q61H GDP Biochemical Activity (IC50)
[5] = molecular target: K-Ras G12A (Homo sapiens, UniProt P01116, G12A); experiment: SOS1 catalyzed nucleotide exchange assay (GDP form K-Ras), K-Ras G12A; conditions: read-out: K-Ras G12A GDP Biochemical Activity (IC50)

C#Cc1c(F)ccc2cc(O)cc(-c3ncc4c(N5C6CCOCC5C6)nc(OC[C@@]56CCCN5C[C@H](F)C6)nc4c3F)c12 (stereo partly drawn) [Compound 42, 4-(4-(3-oxa-7-azabicyclo[4.1.1]octan-7-yl)-8-fluoro-2-(((2R,7aS)-2-fluorotetrahydro-1H-pyrrolizin-7a(5H)-yl)methoxy)pyrido[4,3-d]pyrimidin-7-yl)-5-ethynyl-6-fluoronaphthalen-2-ol trifluoroacetic acid]
IC50 [1]: 1.26 nM | IC50 [2]: 1.05 nM | IC50 [3]: 0.99 nM | IC50 [4]: 1.51 nM | IC50 [5]: 1.65 nM
